Our source for the binding signal values is PMC9911399, “Two distinct binding modes provide the RNA-binding protein RbFox with extraordinary sequence specificity”.

T1: RBFOX1 RRM (Homo sapiens, UniProt Q9NWB1 109-208)
T1 sequence: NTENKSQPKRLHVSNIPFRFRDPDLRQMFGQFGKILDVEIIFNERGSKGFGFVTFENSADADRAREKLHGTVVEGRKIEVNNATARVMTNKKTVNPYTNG

B1: GAGCAGA (DNA:RNA)
RNA: GGGAGACCGGAAUUCAGAUUGUCCGAGCAGAUUAAAUCCCGUCGUAGCCACCA
DNA 1: CAATCTGAATTCCGGTCTCCC
DNA 2: TGGTGGCTACGACGGGATT
B2: GCGCAAA (DNA:RNA)
RNA: B1 RNA with A26C, G30A
DNA 1: CAATCTGAATTCCGGTCTCCC
DNA 2: TGGTGGCTACGACGGGATT
B3: AAGGGCC (DNA:RNA)
RNA: B1 RNA with G25A, C28G, A29G, G30C, A31C
DNA 1: CAATCTGAATTCCGGTCTCCC
DNA 2: TGGTGGCTACGACGGGATT
B4: ACUGGUC (DNA:RNA)
RNA: GGGAGACCGGAAUUCAGAUUGUCCACUGGUCUUAAAUCCCGUCGUAGCCACCA
DNA 1: CAATCTGAATTCCGGTCTCCC
DNA 2: TGGTGGCTACGACGGGATT
B5: AGAAUAC (DNA:RNA)
RNA: B4 RNA with C26G, U27A, G28A, G29U, U30A
DNA 1: CAATCTGAATTCCGGTCTCCC
DNA 2: TGGTGGCTACGACGGGATT
B6: UGGGCAC (DNA:RNA)
RNA: B4 RNA with A25U, C26G, U27G, G29C, U30A
DNA 1: CAATCTGAATTCCGGTCTCCC
DNA 2: TGGTGGCTACGACGGGATT
B7: UGAGCAC (DNA:RNA)
RNA: B4 RNA with A25U, C26G, U27A, G29C, U30A
DNA 1: CAATCTGAATTCCGGTCTCCC
DNA 2: TGGTGGCTACGACGGGATT
B8: CUGAGAA (DNA:RNA)
RNA: B1 RNA with G25C, A26U, C28A, A29G, G30A
DNA 1: CAATCTGAATTCCGGTCTCCC
DNA 2: TGGTGGCTACGACGGGATT
B9: CGCCGCU (DNA:RNA)
RNA: B4 RNA with A25C, C26G, U27C, G28C, U30C, C31U
DNA 1: CAATCTGAATTCCGGTCTCCC
DNA 2: TGGTGGCTACGACGGGATT
B10: AUCAAGA (DNA:RNA)
RNA: B1 RNA with G25A, A26U, G27C, C28A
DNA 1: CAATCTGAATTCCGGTCTCCC
DNA 2: TGGTGGCTACGACGGGATT
B11: AAAAGUG (DNA:RNA)
RNA: B4 RNA with C26A, U27A, G28A, C31G
DNA 1: CAATCTGAATTCCGGTCTCCC
DNA 2: TGGTGGCTACGACGGGATT
B12: UGUCGGG (DNA:RNA)
RNA: B4 RNA with A25U, C26G, G28C, U30G, C31G
DNA 1: CAATCTGAATTCCGGTCTCCC
DNA 2: TGGTGGCTACGACGGGATT
B13: AGUAAGC (DNA:RNA)
RNA: B4 RNA with C26G, G28A, G29A, U30G
DNA 1: CAATCTGAATTCCGGTCTCCC
DNA 2: TGGTGGCTACGACGGGATT
B14: ACGGGCG (DNA:RNA)
RNA: B4 RNA with U27G, U30C, C31G
DNA 1: CAATCTGAATTCCGGTCTCCC
DNA 2: TGGTGGCTACGACGGGATT
B15: AACGUCC (DNA:RNA)
RNA: B4 RNA with C26A, U27C, G29U, U30C
DNA 1: CAATCTGAATTCCGGTCTCCC
DNA 2: TGGTGGCTACGACGGGATT
B16: CUGACUU (DNA:RNA)
RNA: B4 RNA with A25C, C26U, U27G, G28A, G29C, C31U
DNA 1: CAATCTGAATTCCGGTCTCCC
DNA 2: TGGTGGCTACGACGGGATT
B17: UGUUGGU (DNA:RNA)
RNA: B4 RNA with A25U, C26G, G28U, U30G, C31U
DNA 1: CAATCTGAATTCCGGTCTCCC
DNA 2: TGGTGGCTACGACGGGATT
B18: ACCGCAG (DNA:RNA)
RNA: B4 RNA with U27C, G29C, U30A, C31G
DNA 1: CAATCTGAATTCCGGTCTCCC
DNA 2: TGGTGGCTACGACGGGATT
B19: GUCUGGU (DNA:RNA)
RNA: B1 RNA with A26U, G27C, C28U, A29G, A31U
DNA 1: CAATCTGAATTCCGGTCTCCC
DNA 2: TGGTGGCTACGACGGGATT
B20: GCAUCUC (DNA:RNA)
RNA: B4 RNA with A25G, U27A, G28U, G29C
DNA 1: CAATCTGAATTCCGGTCTCCC
DNA 2: TGGTGGCTACGACGGGATT

Positions count from the first letter of the chain named. The list shows a part of the results.

This experiment deals with T1, RBFOX1 RRM. The experiment in a line: EMSA; HiTS-Eq, 1 nM pool, 10 min; buffer printed only for the single-RNA assays: 10 mM Tris pH 7.5, 150 mM NaCl, 3.4 mM EDTA, 0.001% NP-40, 30 C. Particulars: tags: His6 N-terminal (pET28a); label: 5' 32P. The procedure, abridged: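 Purified RbFox RRM, wild type or mutant, was incubated for 10 min in 50 µL with 1 nM of a 5′-radiolabelled RNA pool carrying 7 randomized nucleotides, whose flanks were annealed to DNA oligonucleotides, over a series of increasing protein concentrations. Unbound RNA was resolved on 8% native PAGE, cut out, reverse-transcribed, barcoded by PCR and sequenced on an Illumina HiSeq 2500. Relative association constants were derived from changes in read counts for each RNA species versus the control reaction and normalised to the cognate motif.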
A general note: In EMSA bound probe runs differently from free probe, usually more slowly.
Regarding B1, the binding signal is 0.0147 KA relative to UGCAUGU.
With B2 the figure was 0.007 KA relative to UGCAUGU.
Then B3, with 0.012 KA relative to UGCAUGU.
With B4 the figure was 0.016 KA relative to UGCAUGU; with B5, 0.000709 KA relative to UGCAUGU.
As to B6, the binding signal is 0.0337 KA relative to UGCAUGU.
Then B7, with 0.0128 KA relative to UGCAUGU; and B8, with 0.016 KA relative to UGCAUGU; and B9, with 0.00885 KA relative to UGCAUGU.
With B10 the figure was 0.00585 KA relative to UGCAUGU; with B11, 0.00728 KA relative to UGCAUGU; with B12, 0.0123 KA relative to UGCAUGU.
Consider B13, for which the binding signal is 0.00802 KA relative to UGCAUGU.
With B14 the figure was 0.0129 KA relative to UGCAUGU; with B15, 0.00654 KA relative to UGCAUGU.
Then B16, with 0.0131 KA relative to UGCAUGU.
With B17 the figure was 0.0304 KA relative to UGCAUGU; with B18, 0.00369 KA relative to UGCAUGU; with B19, 0.0182 KA relative to UGCAUGU.
In the case of B20, the binding signal was 0.0161 KA relative to UGCAUGU.
